Experimental data as given in the supplement of paper PMC9151546.
Repeats are few or missing, and single values can be far off.

Legend:
CHO-K1 [1] = assay: hypodiploid nuclei frequency (% of nucleated events); higher = more hypodiploid events (aneugenic)
Protocol: (§1)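 Flow-cytometric in vitro micronucleus assay (Litron MicroFlow) in CHO-K1 cells in 96-well plates, 19 concentrations (4.5-200 µM, n=1 per concentration). Without S9, cells were exposed for 24 h and sampled at 48 h. With Aroclor 1254-induced rat liver S9, cells were exposed for 3-4 h and sampled at 27-28 h. Read-outs are %MN and %hypodiploid nuclei relative to nucleated events, and relative survival as the nuclei-to-bead ratio versus the 1% DMSO vehicle control (x100).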

CHO-K1 [2] = assay: relative survival (nuclei to bead ratio vs DMSO control) (% of vehicle control); higher = more surviving cells
Protocol: as §1

CHO-K1 [3] = assay: micronucleus frequency (% of nucleated events); higher = more micronuclei (genotoxic)
[4] = concentration: 4.55 (µM), S9 metabolic activation: with S9, exposure time: 3-4 hours
[5] = concentration: 4.55 (µM), S9 metabolic activation: without S9, exposure time: 24 hours
[6] = concentration: 5.69 (µM), S9 metabolic activation: with S9, exposure time: 3-4 hours
[7] = concentration: 5.69 (µM), S9 metabolic activation: without S9, exposure time: 24 hours
[8] = concentration: 7.11 (µM), S9 metabolic activation: with S9, exposure time: 3-4 hours
[9] = concentration: 7.11 (µM), S9 metabolic activation: without S9, exposure time: 24 hours
[10] = concentration: 8.88 (µM), S9 metabolic activation: with S9, exposure time: 3-4 hours
[11] = concentration: 8.88 (µM), S9 metabolic activation: without S9, exposure time: 24 hours
[12] = concentration: 11.1 (µM), S9 metabolic activation: with S9, exposure time: 3-4 hours
[13] = concentration: 11.1 (µM), S9 metabolic activation: without S9, exposure time: 24 hours
[14] = concentration: 13.9 (µM), S9 metabolic activation: with S9, exposure time: 3-4 hours
[15] = concentration: 13.9 (µM), S9 metabolic activation: without S9, exposure time: 24 hours
[16] = concentration: 17.4 (µM), S9 metabolic activation: with S9, exposure time: 3-4 hours
[17] = concentration: 17.4 (µM), S9 metabolic activation: without S9, exposure time: 24 hours
[18] = concentration: 21.7 (µM), S9 metabolic activation: with S9, exposure time: 3-4 hours
[19] = concentration: 21.7 (µM), S9 metabolic activation: without S9, exposure time: 24 hours
[20] = concentration: 27.1 (µM), S9 metabolic activation: with S9, exposure time: 3-4 hours
[21] = concentration: 27.1 (µM), S9 metabolic activation: without S9, exposure time: 24 hours
[22] = concentration: 33.9 (µM), S9 metabolic activation: with S9, exposure time: 3-4 hours
[23] = concentration: 33.9 (µM), S9 metabolic activation: without S9, exposure time: 24 hours
[24] = concentration: 42.4 (µM), S9 metabolic activation: with S9, exposure time: 3-4 hours
[25] = concentration: 42.4 (µM), S9 metabolic activation: without S9, exposure time: 24 hours
[26] = concentration: 53 (µM), S9 metabolic activation: with S9, exposure time: 3-4 hours
[27] = concentration: 53 (µM), S9 metabolic activation: without S9, exposure time: 24 hours
[28] = concentration: 66.2 (µM), S9 metabolic activation: with S9, exposure time: 3-4 hours
[29] = concentration: 66.2 (µM), S9 metabolic activation: without S9, exposure time: 24 hours
[30] = concentration: 82.7 (µM), S9 metabolic activation: with S9, exposure time: 3-4 hours
[31] = concentration: 82.7 (µM), S9 metabolic activation: without S9, exposure time: 24 hours
[32] = concentration: 103 (µM), S9 metabolic activation: with S9, exposure time: 3-4 hours
[33] = concentration: 103 (µM), S9 metabolic activation: without S9, exposure time: 24 hours
[34] = concentration: 129 (µM), S9 metabolic activation: with S9, exposure time: 3-4 hours
[35] = concentration: 129 (µM), S9 metabolic activation: without S9, exposure time: 24 hours
[36] = concentration: 162 (µM), S9 metabolic activation: with S9, exposure time: 3-4 hours
[37] = concentration: 162 (µM), S9 metabolic activation: without S9, exposure time: 24 hours
[38] = concentration: 202 (µM), S9 metabolic activation: with S9, exposure time: 3-4 hours
[39] = concentration: 202 (µM), S9 metabolic activation: without S9, exposure time: 24 hours
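Wherever hypodiploid nuclei frequency (% of nucleated events) is given: hypodiploid nuclei gated on a flow cytometer with 488 nm excitation after SYTOX Green staining, cultures at 37 °C, positive controls vinblastine without S9 and cyclophosphamide with S9.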
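Wherever micronucleus frequency (% of nucleated events) is given: cells lysed with nuclei stained by SYTOX Green, then micronucleus-gated events counted against nucleated events by flow cytometry with 488 nm excitation.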
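Wherever relative survival (nuclei to bead ratio vs DMSO control) is given: Lysed-cell nuclei stained with SYTOX Green and counted against counting beads by flow cytometry at 488 nm excitation, with vinblastine (no S9) and cyclophosphamide (plus S9) as positive controls.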

Compound: NC1CCCCC1 [Cyclohexylamine]
- hypodiploid nuclei frequency (CHO-K1 [1]; [4]): 0.08%
- hypodiploid nuclei frequency (CHO-K1 [1]; [5]): 0.7%
- hypodiploid nuclei frequency (CHO-K1 [1]; [6]): 0.4%
- hypodiploid nuclei frequency (CHO-K1 [1]; [7]): 0.38%
- hypodiploid nuclei frequency (CHO-K1 [1]; [8]): 0.2%
- hypodiploid nuclei frequency (CHO-K1 [1]; [9]): 0.3%
- hypodiploid nuclei frequency (CHO-K1 [1]; [10]): 0.38%
- hypodiploid nuclei frequency (CHO-K1 [1]; [11]): 0.68%
- hypodiploid nuclei frequency (CHO-K1 [1]; [12]): 0.3%
- hypodiploid nuclei frequency (CHO-K1 [1]; [13]): 0.62%
- hypodiploid nuclei frequency (CHO-K1 [1]; [14]): 0.3%
- hypodiploid nuclei frequency (CHO-K1 [1]; [15]): 0.48%
- hypodiploid nuclei frequency (CHO-K1 [1]; [16]): 0.1%
- hypodiploid nuclei frequency (CHO-K1 [1]; [17]): 0.44%
- hypodiploid nuclei frequency (CHO-K1 [1]; [18]): 0.22%
- hypodiploid nuclei frequency (CHO-K1 [1]; [19]): 0.36%
- hypodiploid nuclei frequency (CHO-K1 [1]; [20]): 0.26%
- hypodiploid nuclei frequency (CHO-K1 [1]; [21]): 0.76%
- hypodiploid nuclei frequency (CHO-K1 [1]; [22]): 0.18%
- hypodiploid nuclei frequency (CHO-K1 [1]; [23]): 0.66%
- hypodiploid nuclei frequency (CHO-K1 [1]; [24]): 0.24%
- hypodiploid nuclei frequency (CHO-K1 [1]; [25]): 0.84%
- hypodiploid nuclei frequency (CHO-K1 [1]; [26]): 0.34%
- hypodiploid nuclei frequency (CHO-K1 [1]; [27]): 0.96%
- hypodiploid nuclei frequency (CHO-K1 [1]; [28]): 0.24%
- hypodiploid nuclei frequency (CHO-K1 [1]; [29]): 1.02%
- hypodiploid nuclei frequency (CHO-K1 [1]; [30]): 0.22%
- hypodiploid nuclei frequency (CHO-K1 [1]; [31]): 0.74%
- hypodiploid nuclei frequency (CHO-K1 [1]; [32]): 0.2%
- hypodiploid nuclei frequency (CHO-K1 [1]; [33]): 1.12%
- hypodiploid nuclei frequency (CHO-K1 [1]; [34]): 0.28%
- hypodiploid nuclei frequency (CHO-K1 [1]; [35]): 1.22%
- hypodiploid nuclei frequency (CHO-K1 [1]; [36]): 0.34%
- hypodiploid nuclei frequency (CHO-K1 [1]; [37]): 1.26%
- hypodiploid nuclei frequency (CHO-K1 [1]; [38]): 0.2%
- hypodiploid nuclei frequency (CHO-K1 [1]; [39]): 1.62%
- relative survival (CHO-K1 [2]; [4]): 143
- relative survival (CHO-K1 [2]; [5]): 148
- relative survival (CHO-K1 [2]; [6]): 139
- relative survival (CHO-K1 [2]; [7]): 132
- relative survival (CHO-K1 [2]; [8]): 129
- relative survival (CHO-K1 [2]; [9]): 132
- relative survival (CHO-K1 [2]; [10]): 116
- relative survival (CHO-K1 [2]; [11]): 131
- relative survival (CHO-K1 [2]; [12]): 123
- relative survival (CHO-K1 [2]; [13]): 132
- relative survival (CHO-K1 [2]; [14]): 140
- relative survival (CHO-K1 [2]; [15]): 126
- relative survival (CHO-K1 [2]; [16]): 108
- relative survival (CHO-K1 [2]; [17]): 132
- relative survival (CHO-K1 [2]; [18]): 117
- relative survival (CHO-K1 [2]; [19]): 114
- relative survival (CHO-K1 [2]; [20]): 176
- relative survival (CHO-K1 [2]; [21]): 122
- relative survival (CHO-K1 [2]; [22]): 134
- relative survival (CHO-K1 [2]; [23]): 135
- relative survival (CHO-K1 [2]; [24]): 135
- relative survival (CHO-K1 [2]; [25]): 125
- relative survival (CHO-K1 [2]; [26]): 143
- relative survival (CHO-K1 [2]; [27]): 111
- relative survival (CHO-K1 [2]; [28]): 121
- relative survival (CHO-K1 [2]; [29]): 106
- relative survival (CHO-K1 [2]; [30]): 111
- relative survival (CHO-K1 [2]; [31]): 95.6
- relative survival (CHO-K1 [2]; [32]): 99.8
- relative survival (CHO-K1 [2]; [33]): 108
- relative survival (CHO-K1 [2]; [34]): 130
- relative survival (CHO-K1 [2]; [35]): 118
- relative survival (CHO-K1 [2]; [36]): 99.8
- relative survival (CHO-K1 [2]; [37]): 120
- relative survival (CHO-K1 [2]; [38]): 119
- relative survival (CHO-K1 [2]; [39]): 100
- micronucleus frequency (CHO-K1 [3]; [4]): 1.12%
- micronucleus frequency (CHO-K1 [3]; [5]): 1.84%
- micronucleus frequency (CHO-K1 [3]; [6]): 1.82%
- micronucleus frequency (CHO-K1 [3]; [7]): 1.18%
- micronucleus frequency (CHO-K1 [3]; [8]): 1.7%
- micronucleus frequency (CHO-K1 [3]; [9]): 1.72%
- micronucleus frequency (CHO-K1 [3]; [10]): 1.84%
- micronucleus frequency (CHO-K1 [3]; [11]): 2.54%
- micronucleus frequency (CHO-K1 [3]; [12]): 1.34%
- micronucleus frequency (CHO-K1 [3]; [13]): 1.82%
- micronucleus frequency (CHO-K1 [3]; [14]): 2.1%
- micronucleus frequency (CHO-K1 [3]; [15]): 1.3%
- micronucleus frequency (CHO-K1 [3]; [16]): 1.24%
- micronucleus frequency (CHO-K1 [3]; [17]): 1.92%
- micronucleus frequency (CHO-K1 [3]; [18]): 1.64%
- micronucleus frequency (CHO-K1 [3]; [19]): 1.62%
- micronucleus frequency (CHO-K1 [3]; [20]): 1.22%
- micronucleus frequency (CHO-K1 [3]; [21]): 1.86%
- micronucleus frequency (CHO-K1 [3]; [22]): 1.72%
- micronucleus frequency (CHO-K1 [3]; [23]): 1.54%
- micronucleus frequency (CHO-K1 [3]; [24]): 1.34%
- micronucleus frequency (CHO-K1 [3]; [25]): 2.1%
- micronucleus frequency (CHO-K1 [3]; [26]): 1.48%
- micronucleus frequency (CHO-K1 [3]; [27]): 1.6%
- micronucleus frequency (CHO-K1 [3]; [28]): 0.98%
- micronucleus frequency (CHO-K1 [3]; [29]): 2.44%
- micronucleus frequency (CHO-K1 [3]; [30]): 1.24%
- micronucleus frequency (CHO-K1 [3]; [31]): 2.5%
- micronucleus frequency (CHO-K1 [3]; [32]): 1.6%
- micronucleus frequency (CHO-K1 [3]; [33]): 2.2%
- micronucleus frequency (CHO-K1 [3]; [34]): 1.66%
- micronucleus frequency (CHO-K1 [3]; [35]): 2.96%
- micronucleus frequency (CHO-K1 [3]; [36]): 2.34%
- micronucleus frequency (CHO-K1 [3]; [37]): 2.98%
- micronucleus frequency (CHO-K1 [3]; [38]): 2.04%
- micronucleus frequency (CHO-K1 [3]; [39]): 2.68%
